A word on the % Inhibition: it is the change of the read-out against control, counted positive when it falls.

Among all 150,000 compounds or so, about 540 (0.36%) showed an effect of 50% or more. This is one part of the list.

This test relates to Plasmodium falciparum. In words: Primary screen in NF54 nanoGlo assay, in single point, at 2uM, 72h; a lower Z score goes with more inhibition. The conditions noted are these: timepoint 72 hour. The format is functional, Erythrocyte.
As for `CN(C)c1ccc(C(=O)N[C@H]2CO[C@H]3[C@@H]2OC[C@H]3OCc2ccccc2)cc1`, the “% Inhibition” value was determined as 2% and the Z score is listed as -0.29.

Consider `C[C@@H](Cc1ccco1)NC(=O)NCCOc1ccc2c(c1)OCO2`, for which the “% Inhibition” value is -12% and the Z score worked out at 2.19.

Regarding `Cc1nn(C)c(OC[C@H]2CCCCO2)c1C(=O)Nc1ccc2c(c1)C(=O)NC2`, the “% Inhibition” value is reported as -23% and the Z score was 1.93.

`CN(Cc1ccsc1)C(=O)Cn1cnc(C#N)n1`: the “% Inhibition” value is given as -1% and the Z score was found to be 0.13.

On to `CC1CCCN(C(C)CS(=O)(=O)c2ccc3ccccc3c2)C1` (stereo not given), for which the “% Inhibition” value is reported as -11% and the Z score turned out to be 1.8.

Turning to `COCc1cc2nn(CC(=O)N(C)c3ccccc3)c(=O)n2c(-c2ccccc2)n1`, the “% Inhibition” value was found to be 2% and the Z score was -0.33.

As to `COC(=O)c1cc(CN2CC(c3cc(C)ccc3C)OCC2C)c[nH]1` (stereo not given), the “% Inhibition” value was -16% and the Z score was 2.

As for `CN(C)CCN1CC2(CCC1=O)CCN(C(=O)c1cccn1C1CC1)CC2`, the “% Inhibition” value is given as -13% and the Z score was 1.23.

As to `COc1cccc2c1CC[C@@H]2NS(=O)(=O)c1c(N)noc1C`, the “% Inhibition” value was 8% and the Z score is -1.05.

As to `CC[C@]1(O)CCN(c2cc(OC)ncn2)C[C@@H]1O`, the “% Inhibition” value was -10% and the Z score is 1.03.

On to `CCN(Cc1ncccc1C(=O)O)C[C@H]1COc2ccccc2O1`, for which the “% Inhibition” value turned out to be 4% and the Z score was -0.39.

Turning to `CCc1ccc([C@H](C)NC(=O)Cc2csc(COc3ccc(Cl)c(C)c3)n2)cc1`, the “% Inhibition” value was -3% and the Z score is 0.6.

Consider `O=C(Nc1ccccc1C(=O)N1CCN(c2ccccc2F)CC1)c1ccco1`, for which the “% Inhibition” value is -12% and the Z score worked out at 2.3.

`Cc1ccc(C(=O)N[C@@]2(CCO)CCOC2)nc1C`: the “% Inhibition” value is -1% and the Z score is recorded as 0.07.

Consider `CCCn1c(C)cnc1C1CN(S(=O)(=O)C(C)C)C1`, for which the “% Inhibition” value is -9% and the Z score turned out to be 1.16.

Consider `COc1cc(-c2cccc(C(=O)NCCCn3ccnc3)c2)nc(OC)n1`, for which the “% Inhibition” value is -3% and the Z score is on record as 0.37.

`O=C(c1ccccc1N1CCCC1)N1CCC[C@@](O)(CN2CCCC2)C1`: the “% Inhibition” value is listed as -6% and the Z score is given as 1.23.

On to `C[C@@H](c1nnnn1C1CC1)S(=O)(=O)c1ccc2c(c1)CCC2`, for which the “% Inhibition” value was -4% and the Z score came to 0.51.

For `O=C(COC(=O)CC1CCCC1)Nc1nnc(-c2ccccc2)o1`, the “% Inhibition” value came to 3% and the Z score was -0.45.

Consider `Cc1ccc(CN2CCN(Cc3[nH]cnc3C)[C@H]3CS(=O)(=O)C[C@H]32)o1`, for which the “% Inhibition” value was 0% and the Z score is -0.03.

On to `COc1ccc(C(=O)N(Cc2cccc(C)c2)[C@@H]2CCCC[C@H]2NC(=O)[C@@H]2CCCN2C(=O)COc2ccc(Cl)cc2)cc1`, for which the “% Inhibition” value is -6% and the Z score is given as 0.57.

As for `O=S(=O)(Nc1ccccc1CC(c1c[nH]c2ccccc12)c1c[nH]c2ccccc12)c1ccc(Cl)cc1`, the “% Inhibition” value is on record as -11% and the Z score is recorded as 1.84.

`O=C(CCCN1C(=O)[C@H](c2ccccc2)Oc2cccnc21)N1CCC(Cc2nncn2CC2CC2)CC1`: the “% Inhibition” value is listed as -7% and the Z score was 1.24.

Consider `Cc1cccnc1CNS(=O)(=O)CC12CCC(CC1)CC2`, for which the “% Inhibition” value is -8% and the Z score was determined as 1.28.

Regarding `O=C1N[C@H]2C[C@@H](C(=O)NC[C@H]3O[C@H](CCOc4cc(C5CCCC5)ccc41)CC[C@@H]3O)N(CC1CC1)C2`, the “% Inhibition” value was 6% and the Z score was -0.72.

With `C[C@@H](Cc1ccc2c(c1)CCO2)NC(=O)C1CCN(S(C)(=O)=O)CC1`, the “% Inhibition” value is recorded as 0% and the Z score is on record as -0.07.

On to `Cc1sc(-c2ccccc2F)nc1C(=O)NCCc1cnc[nH]1`, for which the “% Inhibition” value came out at 2% and the Z score is on record as -0.34.

For `Cc1cc(Br)cc2c1CN(CC(=O)N1CCNC(=O)C1)CC2`, the “% Inhibition” value is listed as -10% and the Z score is 1.73.

`COC(=O)c1ncn2c1CO[C@H](c1ccc(F)cc1)C2`: the “% Inhibition” value is recorded as -1% and the Z score was found to be 0.07.

With `CCC[C@H](NC(=O)c1cc[nH]c1C)C(=O)N1CCc2sccc2C1`, the “% Inhibition” value was -2% and the Z score is given as 0.22.

On to `CN(C)c1noc(CN[C@@H]2COCCN(C(=O)OC(C)(C)C)C2)n1`, for which the “% Inhibition” value is 2% and the Z score was -0.44.

Consider `CCCN1C(=O)Cc2c(C)nc(-c3cccc(Cl)c3)nc21`, for which the “% Inhibition” value is -2% and the Z score was found to be 0.31.

`O=C(Nc1ccc(NC(=O)C(F)(Cl)C(F)(F)F)cc1)C(F)(Cl)C(F)(F)F` (stereo not given): the “% Inhibition” value is listed as 1% and the Z score is recorded as -0.09.

In the case of `OCCOc1cccc(-c2nccn2-c2ccc(-n3cccn3)cc2)c1`, the “% Inhibition” value is -7% and the Z score was 1.

On to `Cc1nnc(N2CCN(C(=O)[C@@H]3CCCO3)CC2)c(C#N)c1C`, for which the “% Inhibition” value was -8% and the Z score is reported as 0.73.

For `O=C(Nc1ccccc1C(F)(F)F)N[C@H]1CCCS(=O)(=O)C1`, the “% Inhibition” value is given as -8% and the Z score is on record as 1.53.

As to `O=C(c1cc(S(=O)(=O)N2CCC[C@H](C(=O)N3CCCC3)C2)c[nH]1)N1CCCCCC1`, the “% Inhibition” value is on record as -3% and the Z score is 0.65.

Consider `Cc1cccc2c1C(=O)NCCN2C(=O)C1CC1c1ccc2ccccc2c1` (stereo not given), for which the “% Inhibition” value was -8% and the Z score stood at 1.09.

As for `CCCn1nc(C)cc1NC(=O)[C@@H]1CC=CCC1`, the “% Inhibition” value is -8% and the Z score was found to be 0.78.

Consider `COCCN1CC(=O)N[C@H]2CN(S(=O)(=O)N3CCCC3)C[C@@H]2OCc2cccc(c2)Oc2cc(ccc2OC)CCC1=O`, for which the “% Inhibition” value was -4% and the Z score amounted to 0.68.
